In PubChem BioAssay AID330 (DTP/NCI, 2004):
Toxic doses and inconclusive results are not listed. Some entries of the source have several records that differ or are many. The list is limited to them. An entry can have further records. Values that stand side by side repeat one measurement across runs, samples, wells, individuals or studies. What stands in brackets tells the records apart. A, B and so on number the origins entry by entry.

System: P388 leukemia ip, CD2F1 mice, survival T/C
Experiment: NCI In Vivo Anticancer Drug Screen. Data for tumor model P388 Leukemia (intraperitoneal) in CD2F1 (CDF1) mice
Details: endpoint: median survival time, higher = longer survival
[1] = dose: 25.0 mg/kg/injection, schedule: Q01DX009 (ip), vehicle: saline with Tween-80

Compound: CN(N=O)C(=O)NCC1OC(OC2(CO)OC(CNC(=O)N(C)N=O)C(O)C2O)C(O)C(O)C1O (stereo unspecified)
- T/C (dose: 400.0 mg/kg/injection, schedule: Q01DX009 (ip), vehicle: saline): 104 % of control, 150 % of control, 166 % of control

Compound: O=C1NC(=O)C2(CCCc3ccc(N(CCCl)CCCl)cc32)N1 (stereo unspecified)
- T/C (dose: 50.0 mg/kg/injection, schedule: Q01DX009 (ip), vehicle: saline with Tween-80): 100 % of control and 181 % of control

Compound: NC(=S)c1ccccc1[N+](=O)[O-]
- T/C (dose: 200.0 mg/kg/injection, schedule: Q01DX001 (ip), vehicle: saline): 99 % of control and 151 % of control

Compound: CCC12NC(=O)NC1(C)NC(=O)N2 (stereo unspecified)
- T/C [1]: 104 % of control and 162 % of control

Compound: C[C@]12CC[C@H]3[C@@H](CCC4=CC(=O)CC[C@@]43C)[C@@H]1CC[C@@H]2OC(=O)Cc1ccc(N(CCCl)CCCl)cc1
- T/C (dose: 400.0 mg/kg/injection, schedule: Q04DX003 (ip), vehicle: saline with Tween-80): 122 % of control and 166 % of control

Compound: OC(CI)C(O)C(O)C(O)CI (stereo unspecified)
- T/C (dose: 200.0 mg/kg/injection, schedule: Q01DX009 (ip), vehicle: saline with Tween-80): 115 % of control [sample A] and 109 % of control, 170 % of control [sample B]
- T/C (dose: 400.0 mg/kg/injection, schedule: Q01DX009 (ip), vehicle: saline with Tween-80): 120 % of control [sample A] and 160 % of control [sample B]

Compound: CCOc1ccc(-c2nc3ccc(-c4nc5ccc(N6CCN(C)CC6)cc5[nH]4)cc3[nH]2)cc1
- T/C (dose: 1.56 mg/kg/injection, schedule: Q01DX005 (ip), vehicle: water): 124 % of control and 150 % of control

Compound: C1OC1CN1CCN(CC2CO2)CC1 (stereo unspecified)
- T/C (dose: 32.0 mg/kg/injection, schedule: Q01DX009 (ip), vehicle: saline): 105 % of control and 179 % of control

Compound: CC(/C=C/C1OC(=O)C=CC1C)=C\C(C)C/C=C/C(C)=C/C(CO)C(=O)C(C)C(O)C(C)C/C(C)=C/C(=O)O (stereo unspecified)
- T/C (dose: 200.0 micrograms/kg/injection, schedule: Q01DX005 (ip), vehicle: other): 86 % of control and 160 % of control

Compound: O=C(Nc1ccc(C2=NCCCN2)cc1)Nc1cccc(C(=O)Nc2ccc(C3=NCCCN3)cc2)c1
- T/C [1]: 90 % of control and 172 % of control
